pIC50: −log10 of the molar value. Where two headings read alike, the source gives them in different places. Not every detail of the peptide structures is certain; ends, links or a residue may be inferred.
How the values were obtained:
Assay type in all cases: biochemical
[1] = biological target: thrombin (Homo sapiens, UniProt P00734); assay: clotting of purified fibrinogen by thrombin
[2] = biological target: APC (Homo sapiens, UniProt P04070); assay: inhibition of APC by recombinant mutant (Arg358)-α1-antitrypsin, time course; design: Protein C consists of a 155 amino acid residue light chain and a 262 amino acid residue heavy chain; from tissue; alpha1-AT mutant from Transgene, Strasbourg; conditions: 250 μM PC311-325, 500 μM PC142-155; 18 nM APC, 100 nM α1-AT
Procedure: Kinetic studies of inhibition of APC were performed with the higher affinity mutant α1 -AT pseudo-substrate. For the assay, 60 μl of 36 nM APC and/or 60 μl of 200 nM recombinant (Arg^358)-α1 -AT prepared in TBS-BSA at pH 7.4 containing 0.02% NaN3 and 2 mM CaCl2 were separately admixed with 500 μM PC311-325 or 1 mM PC142-155 and maintained for 30 minutes at 37° C. to form APC-peptide and/or α1 -AT-peptide admixtures for each peptide tested, respectively. Thereafter, the peptide-treated APC and α1 -AT admixtures were combined to form a reaction admixture. At selected time points, 8 μl aliquots from the reaction admixture were removed and admixed with 300 μl 0.8 mM S-2366 in TBS-BSA at pH 8.0 containing 0.02% NaN3 to initiate the hydrolysis of S-2366 by APC. The change in absorbance was measured over time as described in the amidolytic assay. […]
Since the number of amino acid residues involved in neutralization of APC by macromolecular plasma protease inhibitors is likely to be higher than the number of residues of APC involved in the cleavage of a small chromogenic substrate such as S-2366, the effect of anti-PC317-331 antibody on the time course of inhibition of APC by a larger pseudo-substrate, such as recombinant mutant (Arg^358)-α1 -AT was evaluated. […] The change in absorbance was measured over time as described in the amidolytic assay. […]

[3] = biological target: prothrombinase; assay: prothrombinase assay with purified proteins; conditions: for pIC50: read-out: 50% inhibition of prothrombinase activity
Procedure: FIG. 3 illustrates prothrombinase activity in the presence of PC311-325. The assay was performed using 1 nM factor Xa, 0.4 nM factor Va, 1.2 μM prothrombin and […] factor Xa in the absence of factor Va in TBS-BSA, 2.5 mM CaCl2, pH 7.4. Unless otherwise specified all prothrombinase assays were carried out in the presence of 50 μM phospholipid vesicles. In all cases solid symbols indicate prothrombinase activity in the presence of factor Va whereas open symbols indicate prothrombinase activity in the […] of factor Va. Solid circles with solid lines indicate prothrombinase activity (with factor Va) in the presence of PC311-325, solid squares with solid lines indicate prothrombinase activity (with factor Va) in the presence of PC311-325 but in the absence of phospholipid vesicles and solid triangles with dashed lines indicate prothrombinase activity (with factor Va) in the presence of the control peptide. Open circles with solid lines denote prothrombinase activity (without factor Va) in the presence of PC311-325 and open triangles with dashed lines denote prothrombinase activity (without factor Va) in the presence of the control peptide.
FIG. 4 illustrates prothrombinase activity in the presence of PC142-155. The assay was performed using 1 nM factor Xa, 0.4 nM factor Va, 1.2 μM prothrombin and 2.5 nM factor Xa in the absence of factor Va in TSB-BSA, 2.5 mM CaCl2, 50 μM phospholipid vesicles, pH 7.4. In all cases solid symbols indicate prothrombinase activity in the […] of factor Va. Solid circles with solid lines indicate prothrombinase activity (with factor Va) in the presence of PC142-155 and solid triangles with dashed lines indicate prothrombinase activity (with factor Va) in the presence of the scrambled peptide. Open circles with solid lines denote prothrombinase activity (without factor Va) in the presence of PC142-155 and open triangles with dashed lines denote prothrombinase activity (without factor Va) in the presence of the scrambled peptide.
Factor Va was determined via its cofactor activity in the activation of prothrombin by Factor Xa. Amounts of Factor Xa (Enzyme Research Lab.), phospholipid vesicles and prothrombin (purified as described by Stenflo, J. Biol. Chem., 25:355-363, (1976) from a barium citrate plasma precipitate purified by DEAE-sephadex chromatography) present in the assay were such that the rate of prothrombin activation was linearly dependent on factor Va and constant over the time course of the experiment. The molar concentration of Factor Xa was determined by active site titration as described by Chase et al., Biochem. Biophys. Res. Commun., 29:508-514 (1967). The molecular weights and extinction coefficients (E280 nm/mg/ml) used in the calculation of protein concentrations were as follows: prothrombin, 72,000 and 1.44; APC, 62,000 and 1.45; and Factor X, 65,300 and 1.16.
In a typical experiment, Factor Va was assayed as follows. An aliquot of the solution containing Va was admixed to a solution containing prothrombin, phospholipids and calcium in individual wells of a 96-well microtiter plate. Prothrombin activation was initiated with the mixture of Factor Xa to the Va-containing wells to form a reaction admixture. Final concentrations of reagents in the reaction mixture were the following: 1.2 μM prothrombin, 1 nM Xa, 0-0.4 nM Va, 50 μM phospholipid-vesicles (phosphatidylserine 20%/phosphatidylcholine 80%; M/M), in 0.05 M Tris-HCl at pH 7.4 containing 0.1 M NaCl, 0.5% BSA and 2.0 mM CaCl2. The reaction was maintained at 22° C. At one minute time intervals from initiation of the reaction, 20 μl aliquots of the reaction admixture were withdrawn and admixed to wells of an ELISA plate containing 80 μl TBS-BSA and 10 mM EDTA at pH 8.0 resulting in the quenching of the prothrombinase reaction. […]

Sequence of APC (P04070 43-197): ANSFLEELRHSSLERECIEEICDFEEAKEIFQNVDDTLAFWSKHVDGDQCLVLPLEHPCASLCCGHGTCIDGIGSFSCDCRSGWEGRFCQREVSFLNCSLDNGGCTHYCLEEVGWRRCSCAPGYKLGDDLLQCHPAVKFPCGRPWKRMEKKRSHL
Sequence of APC (P04070 212-461): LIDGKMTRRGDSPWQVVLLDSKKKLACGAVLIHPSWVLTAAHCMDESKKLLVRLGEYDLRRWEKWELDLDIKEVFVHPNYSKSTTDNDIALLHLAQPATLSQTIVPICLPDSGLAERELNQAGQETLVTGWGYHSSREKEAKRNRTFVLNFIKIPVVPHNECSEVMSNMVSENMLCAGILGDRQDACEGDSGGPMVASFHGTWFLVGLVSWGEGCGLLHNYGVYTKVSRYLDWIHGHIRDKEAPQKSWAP

## CSCC[C@H](NC(=O)[C@H](CCCNC(=N)N)NC(=O)[C@H](CCCCN)NC(=O)[C@H](Cc1c[nH]c2ccccc12)NC(=O)[C@@H]1CCCN1C(=O)[C@H](CCCNC(=N)N)NC(=O)CN)C(=O)N[C@@H](CCC(=O)O)C(=O)N[C@@H](CCCCN)C(=O)N[C@@H](CCCCN)C(=O)N[C@@H](CCCNC(=N)N)C(=O)N[C@@H](CO)C(=O)N[C@@H](Cc1c[nH]cn1)C(=O)N[C@@H](CC(C)C)C(=O)N[C@@H](CS)C(N)=O [PC142-155, Gly-Arg-Pro-Trp-Lys-Arg-Met-Glu-Lys-Lys-Arg-Ser-His-Leu]
[1]
  effect on the clotting of purified fibrinogen by thrombin: no effect
[2]
  effect on the time course of inhibition of APC by recombinant (Arg358)α1-AT: did not have any significant effect
[3]; presence of Factor Va
  pIC50: 4.40
[3]; prothrombinase assays
  pIC50: 4.40
[3]; up to 200 μM PC311-325, up to 250 μM PC142-155
  inhibition of prothrombinase activity in the absence of Factor Va: no significant effect

— patent publication US5968751A, “Method for detecting the presence of protein C antibody in a fluid sample” (The Scripps Research Institute, priority 1997, dated 1999)
